{"source": "patent US20240010750A1", "about": "(Bayer, published 2024)", "binders": {"B1": {"name": "TPP-17928 hIgG4 (antibody)", "heavy": "EVQLLESGGGLVQPGGSLRLSCAASGFTFDDYAMSWVRQAPGKGLEWVSAIGTGGSTYYADSVKGRFTISRDNSKNTLYLQMNSLRAEDTAVYYCAREGYDSSGYYHLDYWGQGTLVTVSSASTKGPSVFPLAPCSRSTSESTAALGCLVKDYFPEPVTVSWNSGALTSGVHTFPAVLQSSGLYSLSSVVTVPSSSLGTKTYTCNVDHKPSNTKVDKRV[letters of human IgG4 Fc with S228P (EU numbers) not shown]", "light": "QSVLTQPPSASGTPGQRVTISCTGSSSNIGATYDVHWYQQLPGTAPKLLIYSNNQRPSGVPDRFSGSKSGTSASLAISGLRSEDEADYYCAAWDWSLSGWVFGGGTKLTVLGQPKAAPSVTLFPPSSEELQANKATLVCLISDFYPGAVTVAWKADSSPVKAGVETTTPSKQSNNKYAASSYLSLTPEQWKSHRSYSCQVTHEGSTVEKTVAPTECS"}, "B2": {"name": "TPP-17044 hIgG1 (antibody)", "heavy": "EVQLLESGGGLVQPGGSLRLSCAASGFTFDDYAMSWVRQAPGKGLEWVSAIGTGGSTYYADSVKGRFTISRDNSKNTLYLQMNSLRAEDTAVYYCAREGYDSSGYYHLDYWGQGTLVTVSS[letters of human IgG1 constant region not shown]", "light": "B1 light", "notes": "Germline variant of TPP-14308"}}, "key": {"human Plasmin": {"biological_target": "human Plasmin (human, UniProt P00747 97-580; P00747 581-810, limits assumed)", "experiment": "cell-based or functional assay"}, "human alpha2-Antiplasmin [1]": {"biological_target": "T1, human alpha2-Antiplasmin (human, UniProt P08697 40-491)", "T1 construct": "Bought (antibodies online, ABIN2544306); also called human A2AP; a2AP", "T1 sequence": "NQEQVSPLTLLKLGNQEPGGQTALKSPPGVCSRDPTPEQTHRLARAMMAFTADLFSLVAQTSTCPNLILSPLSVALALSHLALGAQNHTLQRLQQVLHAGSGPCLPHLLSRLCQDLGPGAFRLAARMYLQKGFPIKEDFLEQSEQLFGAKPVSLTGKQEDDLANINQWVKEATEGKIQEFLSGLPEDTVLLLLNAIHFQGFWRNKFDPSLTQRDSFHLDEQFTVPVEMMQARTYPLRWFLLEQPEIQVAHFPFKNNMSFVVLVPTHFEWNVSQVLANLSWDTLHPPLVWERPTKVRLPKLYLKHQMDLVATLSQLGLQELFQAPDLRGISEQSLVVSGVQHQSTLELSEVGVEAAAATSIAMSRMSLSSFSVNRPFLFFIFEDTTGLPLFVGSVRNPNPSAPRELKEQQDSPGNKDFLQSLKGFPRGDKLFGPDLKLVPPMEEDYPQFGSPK", "experiment": "SPR Biacore T200, antibody captured on protein G chip, A2AP as analyte, 25 C", "experimental": "(§1) Binding assays were performed on a Biacore T200 instrument at 25° C. with a protein G sensor chip and assay buffer HBS-EP+. Antibodies were captured to ˜150 RU and analytes were used at concentrations between 1.56 and 200 nM for full kinetics. As interaction partner, alpha2-Antiplasmin from human, cynomolgus and rabbit was used. Regeneration was performed with glycine-HCl pH 1.5. Kinetic parameters were derived by fitting experimental sensorgrams to a 1:1 Langmuir binding model."}, "[2]": {"biological_target": "T2, rabbit alpha2-Antiplasmin (rabbit (Oryctolagus cuniculus))", "T2 construct": "Made in house in HEK293 cells, purified by Ni-IMAC and SEC (a His tag is implied but not described); also called rabbit A2AP; Oryctolagus cuniculus A2AP", "T2 chain": "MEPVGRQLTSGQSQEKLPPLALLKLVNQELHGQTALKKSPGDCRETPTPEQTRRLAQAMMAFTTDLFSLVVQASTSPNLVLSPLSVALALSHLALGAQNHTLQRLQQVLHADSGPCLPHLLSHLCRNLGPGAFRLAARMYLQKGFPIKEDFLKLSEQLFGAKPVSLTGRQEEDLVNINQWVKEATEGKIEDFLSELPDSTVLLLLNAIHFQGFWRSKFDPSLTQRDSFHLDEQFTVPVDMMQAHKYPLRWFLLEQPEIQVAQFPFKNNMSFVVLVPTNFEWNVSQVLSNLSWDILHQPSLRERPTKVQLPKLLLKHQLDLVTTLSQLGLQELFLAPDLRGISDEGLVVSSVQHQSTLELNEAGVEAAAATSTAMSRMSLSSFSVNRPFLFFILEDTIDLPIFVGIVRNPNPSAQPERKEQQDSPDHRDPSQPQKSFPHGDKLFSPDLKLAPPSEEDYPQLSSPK", "experiment": "SPR Biacore T200, antibody captured on protein G chip, A2AP as analyte, 25 C", "experimental": "as §1"}, "[3]": {"biological_target": "T3, cynomolgus alpha2-Antiplasmin (cynomolgus (Macaca fascicularis), UniProt P08697 28-491 (human entry))", "T3 construct": "Made in house in the same way as the rabbit protein; also called cynomolgus A2AP; Macaca fascicularis A2AP", "T3 chain": "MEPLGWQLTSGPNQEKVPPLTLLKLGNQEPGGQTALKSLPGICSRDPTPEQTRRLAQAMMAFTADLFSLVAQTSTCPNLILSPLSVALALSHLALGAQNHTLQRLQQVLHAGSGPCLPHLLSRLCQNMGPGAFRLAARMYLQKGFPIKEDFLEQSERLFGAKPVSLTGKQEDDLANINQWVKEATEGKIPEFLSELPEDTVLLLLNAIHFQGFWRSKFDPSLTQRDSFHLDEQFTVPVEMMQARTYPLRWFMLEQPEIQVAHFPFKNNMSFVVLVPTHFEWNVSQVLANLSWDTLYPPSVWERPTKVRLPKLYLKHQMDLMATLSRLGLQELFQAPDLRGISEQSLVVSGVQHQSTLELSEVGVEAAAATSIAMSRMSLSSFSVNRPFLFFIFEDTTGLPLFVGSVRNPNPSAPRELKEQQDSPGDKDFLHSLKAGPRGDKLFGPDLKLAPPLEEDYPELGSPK", "experiment": "SPR Biacore T200, antibody captured on protein G chip, A2AP as analyte, 25 C", "experimental": "as §1"}, "[4]": {"biological_target": "T2, rabbit alpha2-Antiplasmin", "experiment": "cell-based or functional assay"}, "human alpha2-Antiplasmin [5]": {"biological_target": "T1, human alpha2-Antiplasmin", "experiment": "cell-based or functional assay"}, "human alpha2-Antiplasmin [6]": {"biological_target": "T1, human alpha2-Antiplasmin", "experiment": "cell-based or functional assay", "remark": "listed apart in the source"}, "human alpha2-Antiplasmin [7]": {"biological_target": "T1, human alpha2-Antiplasmin", "experiment": "ELISA (Example 3), human alpha2-Antiplasmin coated, RFU", "experimental": "A standard ELISA format was used for analyzing the binding affinity of Fabs of this invention to human and rabbit alpha-2-Antiplasmin, respectively. Antigens were coated to black 384 well Maxisorp microtiter plates (Nunc; catalogue number 460518), diluted to a concentration of 1 μg/ml in 1× Coating Buffer (Candor Bioscience; catalogue number 121125). Plates were incubated overnight at 4° C. After overnight incubation, plates were washed 2× with 50 μl/well using PBS+0.05% Tween 20. Following this, 50 μl/well of blocking buffer (Smart Block; Candor Bioscience; catalogue number 113500) was added and the plates were incubated for 1 hour at room temperature. Afterwards, plates were washed for 3× using […] PBS+0.05% Tween 20 buffer. Fabs of this invention were added at different concentrations in a final volume of 30 μl/well. Plates were incubated for 1 hour at room temperature. […]\n(§2) For measurement, the Infinite f500 reader (Tecan) was used. Measurement mode: Fluorescence; Top reading; Ex 535 nm; Em 590 nm.\nAccording to the method described in Example 3, these 12 antibodies were tested for ability to bind human and rabbit alpha2-Antiplasmin in a dose-dependent manner. Data generated were analyzed using the GraphPadPrism software. The binding activities of the antibodies were calculated as EC50 values. […]"}, "human alpha2-Antiplasmin [8]": {"biological_target": "T1, human alpha2-Antiplasmin", "experiment": "ELISA, coated antigen, quantified unpurified antibody, 1st exp."}, "human alpha2-Antiplasmin [9]": {"biological_target": "T1, human alpha2-Antiplasmin", "experiment": "ELISA, coated antigen, quantified unpurified antibody, 2nd exp."}, "human alpha2-Antiplasmin [10]": {"biological_target": "T1, human alpha2-Antiplasmin", "experiment": "ELISA, coated antigen, quantified unpurified antibody, 3rd exp.", "experimental": "A standard ELISA format was used for analyzing the binding affinity of Fabs of this invention to human and rabbit alpha-2-Antiplasmin, respectively. Antigens were coated to black 384 well Maxisorp microtiter plates (Nunc; catalogue number 460518), diluted to a concentration of 1 μg/ml in 1× Coating Buffer (Candor Bioscience; catalogue number 121125). Plates were incubated overnight at 4° C. After overnight incubation, plates were washed 2× with 50 μl/well using PBS+0.05% Tween 20. Following this, 50 μl/well of blocking buffer (Smart Block; Candor Bioscience; catalogue number 113500) was added and the plates were incubated for 1 hour at room temperature. Afterwards, plates were washed for 3× using […] PBS+0.05% Tween 20 buffer. Fabs of this invention were added at different concentrations in a final volume of 30 μl/well. Plates were incubated for 1 hour at room temperature. Following this incubation step, plates were washed for 3× using 50 μl/well of a PBS+0.05% Tween 20 buffer. For the detection of bound Fabs and full-length antibodies, the anti-Human Lambda Light Chains (Bound and Free)—Peroxidase antibody (Sigma; catalogue number A5175) was diluted by the factor of 1:10.000 in 10% Blocking Buffer. […]\nas §2"}}}
{"binder": "B1", "values": [{"measurement": "IC50 [M], inhibition of plasmin proteolytic activity", "setting": "human Plasmin", "value": "> 1e-05", "unit": "M"}, {"measurement": "Kd", "setting": "human alpha2-Antiplasmin [1]", "value": 1, "unit": "nM"}, {"measurement": "Kd", "setting": "[2]", "value": 5, "unit": "nM"}, {"measurement": "Kd", "setting": "[3]", "value": 2, "unit": "nM"}]}
{"binder": "B2", "values": [{"measurement": "function blocking IC50, purified antibody, 1st exp. (FIG. 9.3)", "setting": "[4]", "value": 27, "unit": "nM"}, {"measurement": "function blocking IC50, purified antibody, 2nd exp.", "setting": "[4]", "value": 36, "unit": "nM"}, {"measurement": "function blocking IC50, purified antibody, 3rd exp.", "setting": "[4]", "value": 29, "unit": "nM"}, {"measurement": "function blocking activity [IC50 M], 1st exp.", "setting": "human alpha2-Antiplasmin [5]", "value": 0.17, "unit": "nM"}, {"measurement": "function blocking activity [IC50 M], 2nd exp.", "setting": "human alpha2-Antiplasmin [5]", "value": 0.23, "unit": "nM"}, {"measurement": "function blocking activity [IC50 M], 3rd exp.", "setting": "human alpha2-Antiplasmin [5]", "value": 0.2, "unit": "nM"}, {"measurement": "IC50 [M], inhibition of plasmin proteolytic activity", "setting": "human Plasmin", "value": "> 1e-05", "unit": "M"}, {"measurement": "EC50 (read off the curve); function blocking assay (Example 4), RFU of plasmin substrate cleavage", "setting": "human alpha2-Antiplasmin [6]", "value": "~0.2", "unit": "nM"}, {"measurement": "EC50 (read off the curve)", "setting": "human alpha2-Antiplasmin [7]", "value": "~0.04", "unit": "nM"}, {"measurement": "EC50", "setting": "human alpha2-Antiplasmin [8]", "value": 0.037, "unit": "nM"}, {"measurement": "EC50", "setting": "human alpha2-Antiplasmin [9]", "value": 0.049, "unit": "nM"}, {"measurement": "EC50", "setting": "human alpha2-Antiplasmin [10]", "value": 0.1, "unit": "nM"}, {"measurement": "Kd", "setting": "human alpha2-Antiplasmin [1]", "value": 5.1, "unit": "nM"}, {"measurement": "Kd", "setting": "[2]", "value": 5.4, "unit": "nM"}, {"measurement": "Kd", "setting": "[3]", "value": 3.8, "unit": "nM"}]}
